Test results from PubChem BioAssay AID1508624 (National Center for Advancing Translational Sciences (NCATS), 2021).
Out of some 48,000 compounds screened, about 120 (0.25%) were called active. About 4% were inconclusive and are not listed. Calls follow the shape of the dose curve; as a rule, active = well fitted activation curve with a large enough effect; inconclusive = small, poorly fitted or top-dose-only effect, or another doubt; inactive = no such curve, though single readings can be large or run the other way. This is one part of the list.

Assay: Primary qHTS for Identification of Small Molecule Activators of Huntingtin-Antisense Promoter Activity; also: nearly all actives have a fitted effect of over 55% in size
Settings: HEK293 HTT-AS promoter firefly luciferase reporter (activity 0% = vehicle and -100% = no light), 24 h; series mostly up to 57.5 µM; activity change, positive = activation: at the top concentration
Outline: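 HEK293 Fluc reporter, 2,500 cells/well, 24 h pre-culture; cpds up to 57.5 uM final, 24 h 37 degrees C; Dual-Glo, 10 min RT; normalized vehicle = 0%, zero RLU = -100%.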
For `Cc1cc(C)c(NC(=O)Cn2c(=O)nc(-c3ccccc3)c3cc(Cl)ccc32)c(C)c1`, the “activity change, positive = activation” value was inactive: -1.51%.
For `COc1cc(NC(=O)N2CCC3(CC2)Nc2cc(F)ccc2-n2cccc23)cc(OC)c1OC`, the “activity change, positive = activation” value was inactive: -31.3%.
With `Cc1cc(=O)n(Cc2cccc(F)c2)c2c1c(C)nn2-c1cccc(F)c1` the “activity change, positive = activation” value was inactive: -14.1%.
For `CCc1cccc(CC)c1-n1nnc2c(sc3nc(C)cc(C)c32)c1=O`, the “activity change, positive = activation” value was inactive: -10.4%.
With `Cc1ccccc1CN1c2ccccc2-c2nc(SCC(N)=O)ncc2S1(=O)=O` the “activity change, positive = activation” value was inactive: 18.9%.
In the case of `O=C(CSc1nc(-c2ccc(F)cc2)[nH]c1-c1ccccc1)Nc1ccccc1`, the “activity change, positive = activation” value is reported as inactive: -30%.
In the case of `CCc1ccc(-c2nn(CC(=O)Nc3ccccc3C)c3c2cnc2ccc(C)cc23)cc1`, the “activity change, positive = activation” value is reported as inactive: 6.37%.
With `CCn1cc2nc(SCc3cccc(C(F)(F)F)c3)n(Cc3ccc(Cl)cc3)c(=O)c2n1` the “activity change, positive = activation” value was inactive: 10.1%.
In the case of `COc1ccc(OC)c(NC(=O)CCCc2nnc3n(C(C)C)c(=O)c4sccc4n23)c1`, the “activity change, positive = activation” value is reported as inactive: 11.4%.
For `Cc1ccc(Cl)cc1-n1nnc(-c2nsc(NC(=O)c3ccccc3Cl)n2)c1C`, the “activity change, positive = activation” value was inactive: -2.77%.
For `Cc1ccc2oc(C(=O)Nc3ccc(S(=O)(=O)N4CCCC(C)C4)cc3)cc(=O)c2c1` (stereo not given), the “activity change, positive = activation” value was inactive: 4.97%.
For `O=C(O)c1ccccc1C(=O)Nc1ccc(-c2ccccc2)cc1`, the “activity change, positive = activation” value was inactive: -61.2%.
For `Cc1ccc(C)c(N2CCN(C(=O)c3cnn(C(C)(C)C)c3C3CCN(C(=O)OC(C)(C)C)CC3)CC2)c1`, the “activity change, positive = activation” value was inactive: -37.7%.
In the case of `COc1ccc(Cl)cc1NC(=O)NCCn1c(=O)oc2ccc(C)cc21`, the “activity change, positive = activation” value is reported as inactive: -28.7%.
For `CCc1ccc(-n2c(=O)c3ccccc3n(CC(=O)NCCc3ccc(OC)c(OC)c3)c2=O)cc1`, the “activity change, positive = activation” value was inactive: -18%.
In the case of `COc1ccc(C)cc1NC(=O)N1CCC(CN2CCOCC2)CC1`, the “activity change, positive = activation” value is reported as inactive: -15.5%.
For `Cc1ccc2cc3cc(C(=O)N4CCN(c5ccc(Cl)cc5)CC4)oc3nc2c1`, the “activity change, positive = activation” value was inactive: -1.22%.
With `Cn1cc(S(C)=O)c(=O)c2ccc(F)cc21` (stereo not given) the “activity change, positive = activation” value was inactive: 1.84%.
For `Cc1ccccc1NC(=O)c1c(NC(=O)c2ccccc2)sc2c1CCC2`, the “activity change, positive = activation” value was inactive: 14.8%.
In the case of `CCN(CC)C(=O)c1sc2c(c1C)c(=O)n(-c1ccccc1)c(=O)n2Cc1c(C)cc(C)cc1C`, the “activity change, positive = activation” value is reported as inactive: -17%.
With `COc1ccc(-c2cn3nc(N4CCC(C(=O)Nc5ccccc5OC)CC4)sc3n2)cc1` the “activity change, positive = activation” value was inactive: 3.79%.
For `CCOc1ccc(NC(=O)CC2C(=O)N(c3ccccc3)C(=O)N2CCc2cccs2)cc1` (stereo not given), the “activity change, positive = activation” value was inactive: -24.4%.
With `Cc1ccc(CCNC(=O)c2sc3ncccc3c2-n2c(C)ccc2C)cc1` the “activity change, positive = activation” value was inactive: 9.88%.
For `CC1CCCCN1c1c(S(=O)(=O)c2ccc(Cl)cc2)cnc2ccccc12` (stereo not given), the “activity change, positive = activation” value was inactive: -26.8%.
In the case of `CCC(=O)Nc1ccc(CC)cc1-c1nc2ccccc2n(CC(=O)Nc2cccc(OC)c2)c1=O`, the “activity change, positive = activation” value is reported as inactive: -24.8%.
With `COc1cccc(C2=CC(c3ccccc3F)n3ncc(C(=O)Nc4ccc(C)cc4)c3N2)c1` (stereo not given) the “activity change, positive = activation” value was inactive: -54.1%.
In the case of `Cc1cc(C)cc(-n2ccnc(NCCc3ccccc3)c2=O)c1`, the “activity change, positive = activation” value is reported as inactive: 18.9%.
With `CCOC(=O)c1cc2c(=O)n3ccccc3nc2n(CC(C)C)c1=NC(=O)COc1ccc(Cl)cc1` the “activity change, positive = activation” value was inactive: 17.7%.
With `COc1ccc(C(=O)Nc2ccc3nc4c(c(Nc5ccc(OC)c(OC)c5)c3c2)CCCC4)c(OC)c1` the “activity change, positive = activation” value was inactive: -6.99%.
With `COc1ccc(-c2nc(CS(=O)CC(=O)NCCc3ccccc3)c(C)o2)cc1OC` (stereo not given) the “activity change, positive = activation” value was inactive: -5.07%.
For `Cc1cc(N2CCN(C)CC2)nc2ccc(NC(=O)c3ccc(C(C)(C)C)cc3)cc12`, the “activity change, positive = activation” value was inactive: -17.6%.
With `Cc1ccc(-n2nc(C(=O)Nc3ccc(F)cc3Cl)c(=O)n(C)c2=O)cc1` the “activity change, positive = activation” value was inactive: -2.42%.
With `CN(Cc1ccccc1)c1nnc(NC(=O)Nc2cccc(Br)c2)s1` the “activity change, positive = activation” value was inactive: -34.3%.
For `CCN(CC)S(=O)(=O)c1ccc(NC(=O)c2cc3ccc4cccnc4c3[nH]2)cc1`, the “activity change, positive = activation” value was inactive: -13.1%.
For `C=CC(=O)N1CCC[C@@H](n2nc(-c3ccc(Oc4ccccc4)cc3)c3c(N)ncnc32)C1`, the “activity change, positive = activation” value was inactive: -17.9%.
For `Cc1ccc(C(=O)n2nc(C)c(S(=O)(=O)N3CCCCCC3)c2C)cc1C`, the “activity change, positive = activation” value was inactive: -14.2%.
With `COc1ccccc1NC(=O)CSc1nc(O)c(C/C=C/c2ccccc2)c(=O)[nH]1` the “activity change, positive = activation” value was inactive: -33.1%.
For `CCc1nnc(NC(=O)CSc2nccn2Cc2ccc(C)cc2)s1`, the “activity change, positive = activation” value was inactive: -22%.
With `COc1ccc(CNC(=O)c2nc(SCc3ccc(C)cc3)ncc2Cl)cc1` the “activity change, positive = activation” value was inactive: -23%.
For `COc1ccc(Cn2c(=O)n(-c3ccc(F)c(Cl)c3)c(=O)c3c2c2cc(OC)ccc2n3C)cc1`, the “activity change, positive = activation” value was inactive: -6.02%.
In the case of `CCOC(=O)c1c(S(=O)(=O)N2CCC(C(=O)NCc3cccc(C)c3)CC2)c(C)n(C)c1C`, the “activity change, positive = activation” value is reported as inactive: 0%.
For `CCOc1cccc2sc(N3CCN(C(=O)c4ccc5c(c4)CCCC5)CC3)nc12`, the “activity change, positive = activation” value was inactive: -12.6%.
For `CC(C)C(NS(=O)(=O)c1ccc2c(c1)oc(=O)n2C)C(=O)N1CCN(c2cccc(Cl)c2)CC1` (stereo not given), the “activity change, positive = activation” value was inactive: -24.1%.
For `CCN(CC)C(=O)c1ccc2c(c1)N(Cc1c(F)cccc1Cl)C(=O)c1ccccc1S2`, the “activity change, positive = activation” value was inactive: -22.3%.
In the case of `Cc1ccn2c(Nc3c(C)cccc3C)c(-c3ccsc3)nc2c1`, the “activity change, positive = activation” value is reported as inactive: -25.3%.
For `COc1ccc(N2CC(NC(=O)c3cccs3)CC2=O)cc1` (stereo not given), the “activity change, positive = activation” value was inactive: -12.3%.
For `O=C(CSc1nc(=O)[nH]c2c1CCCC2)Nc1ccc(Cl)c(Cl)c1`, the “activity change, positive = activation” value was inactive: -13%.
For `CC1CN(C(=O)CCC(=O)NCc2cccc(Cl)c2)c2ccccc2S1` (stereo not given), the “activity change, positive = activation” value was inactive: -24.3%.
For `O=C(O)c1ccc(Cn2cnc3cccnc32)cc1`, the “activity change, positive = activation” value was inactive: -15.6%.
For `CC1CCN(CC2CCN(C(=O)NCc3ccc(F)cc3)CC2)CC1`, the “activity change, positive = activation” value was inactive: -6.03%.
With `COc1ccccc1C(=O)N(Cc1nc(-c2cccc(C)c2)no1)C(C)C` the “activity change, positive = activation” value was inactive: -22.6%.
With `COc1ccc(S(=O)(=O)c2cnc3cc(OC)c(OC)cc3c2N2CCCC(C)C2)cc1` (stereo not given) the “activity change, positive = activation” value was inactive: -26.7%.
For `CCOc1ccc(C2C(C(=O)Nc3ccccc3)=C(C)Nc3nc(SCc4cccc(OC)c4)nn32)cc1` (stereo not given), the “activity change, positive = activation” value was inactive: 4.14%.
With `O=C(NCc1ccccc1)c1nc(S(=O)(=O)Cc2ccc(F)cc2)ncc1Cl` the “activity change, positive = activation” value was inactive: -85.7%.
For `Cc1ccc(/C=C/c2onc(C)c2S(=O)(=O)N2CCC(C(=O)N3CCN(c4cccc(C)c4)C(C)C3)CC2)cc1` (stereo not given), the “activity change, positive = activation” value was inactive: -26.9%.
In the case of `CC(C)CCOc1ccc(C2N=C(N)Nc3nc4ccccc4n32)cc1` (stereo not given), the “activity change, positive = activation” value is reported as inactive: -23.9%.
With `CCc1ccc(OCc2nc(-c3ccc(-n4cccc4)cc3)no2)cc1` the “activity change, positive = activation” value was inactive: 1.37%.
With `CCc1nc(-c2cc(S(=O)(=O)N3CCN(c4ccc(OC)cc4)CC3)ccc2OC)no1` the “activity change, positive = activation” value was inactive: -12.5%.
With `C=CC(=O)Nc1ccc2ncnc(Nc3ccc(OCc4cccc(F)c4)c(Cl)c3)c2c1` the “activity change, positive = activation” value was inactive: -28.1%.
With `CCOc1ccc(-c2cn3c(n2)sc2cc(C(=O)NCCc4ccc(OC)cc4OC)ccc23)cc1` the “activity change, positive = activation” value was inactive: -12.6%.
